From PMC6919601, “Identification of Plasmodium dipeptidyl aminopeptidase allosteric inhibitors by high throughput screening” (PLoS ONE, 2019)
Screen size: about 110,000 compounds; about 230 (0.21%) showed an effect of 50% or more. This is one part of the list.

target: DPAP1 (Plasmodium falciparum, UniProt Q8IIJ9); assay: primary screen, percent inhibition; read by cleavage of a fluorogenic dipeptide substrate; higher = more effect of the substance; set-up: species or system P. falciparum D10 trophozoite lysates; single well
Sequence (Q8IIJ9 whole entry, looked up): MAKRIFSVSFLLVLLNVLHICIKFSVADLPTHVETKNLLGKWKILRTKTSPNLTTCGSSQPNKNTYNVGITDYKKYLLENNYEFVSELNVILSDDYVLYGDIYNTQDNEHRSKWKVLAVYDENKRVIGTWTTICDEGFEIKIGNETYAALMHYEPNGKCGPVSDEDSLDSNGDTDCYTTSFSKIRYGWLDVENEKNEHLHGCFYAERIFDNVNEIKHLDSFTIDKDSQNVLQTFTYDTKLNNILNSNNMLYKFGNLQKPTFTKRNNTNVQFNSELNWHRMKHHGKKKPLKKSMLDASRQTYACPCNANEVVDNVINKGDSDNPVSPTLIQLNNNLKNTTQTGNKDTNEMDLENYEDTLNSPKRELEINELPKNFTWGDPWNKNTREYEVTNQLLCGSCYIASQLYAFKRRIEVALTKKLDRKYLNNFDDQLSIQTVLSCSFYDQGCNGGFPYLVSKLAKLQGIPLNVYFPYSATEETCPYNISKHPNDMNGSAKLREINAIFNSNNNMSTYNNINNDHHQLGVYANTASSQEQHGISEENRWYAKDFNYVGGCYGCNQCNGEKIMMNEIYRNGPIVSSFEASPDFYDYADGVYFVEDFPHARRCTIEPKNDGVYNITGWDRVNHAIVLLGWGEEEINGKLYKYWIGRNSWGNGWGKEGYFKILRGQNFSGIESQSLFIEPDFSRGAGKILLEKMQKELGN
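Also: 30 min substrate incubation versus DMSO and 10 µM JCP410 controls.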

SMILES	% Inhibition @ 10 uM
CCOc1ccc(N2C(=O)CC(NCc3ccc(OC)cc3)C2=O)cc1 (stereo not drawn)	0.189%
Cc1ccccc1CS(=O)(=O)C[C@H](NC(=O)N1CCOCC1)C(=O)N[C@@H](CCc1ccccc1)C(=O)c1nc2ccccc2o1	-5.21%
CC1=C(C(=O)OCCc2ccccc2)C(c2ccc(Cl)c(Cl)c2)CC(=O)N1 (stereo not drawn)	3.34%
COC(=O)c1cc(-c2ccc(C)cc2)c2c(=O)[nH]c(=O)n(C)c2n1	1.12%
CC1CCCCN1c1nc2c(S(=O)(=O)c3ccccc3)nnn2c2ccc(Cl)cc12 (stereo not drawn)	-4.85%
Cc1ccccc1OCCn1c(C2CCCO2)nc2ccccc21 (stereo not drawn)	2.14%
Cc1ccc2oc(=O)c3cnn(CC(=O)N4CCC(Cc5ccccc5)CC4)c3c2c1	3.01%
O=C(c1nc(-c2ccc(Cl)cc2)n2c1CCCCC2)N1CCOCC1	2.36%
Cc1cc(NC(=O)NC(=O)c2ccc(C(F)(F)F)cc2)no1	-3.77%
Cc1nsc2ccc3ccccc3c12	3.36%
C#C/C(C)=C/COC(=O)Cn1c(=O)sc2ccccc21	-3.37%
Cc1ccc(-c2c(NC3CCCc4ccccc43)c(=O)c2=O)cc1 (stereo not drawn)	-2.28%
Cc1ccccc1OCCCn1ccnc1	-2.28%
CCOc1ccc(S(=O)(=O)NCc2ccccc2OC)cc1	0.727%
Cc1cccc(CN2CCN(CC(=O)NCCCN3CCCC3=O)C2=O)c1	-7.85%
CCCCC(=O)Nc1ncc2c(n1)CC(C)(C)CC2=O	-2.54%
CCCOc1ccc(C2C(C(=O)OC)=C(C)N(C)C(C)=C2C(=O)OC)cc1	6.12%
CC(C)OCCCn1c(=O)c2ccccc2n2c(CCC(=O)O)nnc12	-4.58%
O=S(=O)(c1ccc(Cc2ccc(S(=O)(=O)N3CCOCC3)cc2)cc1)N1CCOCC1	3.25%
CCOc1cc2c(cc1OCC)C1C(C(=O)NCCOC)c3ccccc3C(=O)N1CC2 (stereo not drawn)	-5.29%
Cc1c(C(=O)NCc2ccccc2Cl)oc2ccc(S(=O)(=O)N3CCC(C)CC3)cc12	3.33%
Cc1cccc(C)c1NC(=O)c1ccc(Cl)cc1	-3.82%
CCOC(=O)C(C(=O)OCC)=C(/C=C/N(C)C)N(C)C	-3.75%
Cc1ccc(-c2c(C#N)c(N)nc3c2CCCCCCCCCC3)cc1	-0.711%
COCc1nnc(NC(=O)c2ccc(S(=O)(=O)N(C)Cc3ccccc3)cc2)o1	0.457%

SMILES	% Inhibition @ 10 uM
COc1cc(CNS(=O)(=O)c2ccc3[nH]c4c(c3c2)CCCC4)cc(OC)c1OC	-2.5%
Cc1ccc(Cn2cc(CCC(=O)N3CCC(C(N)=O)CC3)c3ccccc32)cc1	-0.822%
CN(CCOC12CC3CC(CC(C3)C1)C2)S(=O)(=O)c1ccc(C(C)(C)C)cc1	3.68%
CC(=O)c1cccc(NC(=O)c2ccc(N(Cc3ccccc3C)S(C)(=O)=O)cc2)c1	-2.92%
Nc1ccccc1C(=O)N1CCN(c2ccc(Cl)cc2)CC1	-7.17%
CCOc1cc(/C=C(/C#N)c2nc(-c3cc4ccccc4oc3=O)cs2)ccc1O	4.35%
CC(C)C[C@H](NC(=O)c1cccc(-c2ncccn2)c1)C(=O)NCC#N	-5.2%
Cc1nn(C(=O)c2ccc(COc3ccccc3Cl)o2)c(C)c1Br	2.1%
CCOC(=O)/C(C#N)=C\c1ccc(N(CC)CC)cc1	4.67%
COc1ccc(NC(=O)CNS(=O)(=O)c2ccc(Br)cc2)cc1OC	0.361%
CSc1cccc(NC(=O)CN(Cc2ccc(F)cc2)S(=O)(=O)c2ccccc2)c1	-0.68%
Cc1ccc(-n2nc(C)c3c2OC(N)=C(C#N)C3c2cccs2)cc1 (stereo not drawn)	7.93%
COC(=O)c1ccc(/C=N/N=C(\N)c2nonc2N)cc1	-2.98%
O=C(CCN1C(=O)c2ccccc2C1=O)N1CCC(c2ccccc2)C1 (stereo not drawn)	-2.67%
Cc1ccc2c(CN(Cc3cccs3)C(C)C)cc(=O)oc2c1	0.00706%
CC(Oc1ccccc1F)C(=O)Nc1nc(-c2ccc(S(=O)(=O)N3CCOCC3)cc2)cs1 (stereo not drawn)	3.93%
CCC(C)NC(=O)c1ccc(-n2c(C)cc3c2CCC(C)C3)cc1 (stereo not drawn)	-3.6%
CC1CCCC(C)N1CCCNC(=O)CCc1cn(C)c2ccccc12 (stereo not drawn)	5.6%
Cc1c(CNCc2ccc(OC(C)C)cc2)c(C(=O)O)c(C)n1Cc1ccccc1F	1.41%
CCOC(=O)c1cnn2c(C)cc(-c3ccc(OCC)cc3)nc12	-5.2%
Cn1c2ccccc2c2cnn(CC(=O)N3CCN(c4ncccn4)CC3)c(=O)c21	53.7%
CCOc1ccc(S(=O)(=O)NCc2ccccn2)c(C)c1C	-3.33%
COc1ccc(C)cc1NC(=O)c1cccc(OC(F)F)c1	-7.32%
CCCNc1cc(C)oc(=O)c1C(C)=O	-0.828%
CCN1CCC(NCc2ccccc2F)CC1	-0.292%

SMILES	% Inhibition @ 10 uM
CCOc1cccc(C(=O)N[C@@H](CC2CCCCC2)C(=O)NCC#N)c1	1.35%
CCc1nc(SC)ncc1C(=O)NC1CCCCC1	-3.19%
COc1ccc(/C=N/CCN2Cc3ccccc3C2=O)cc1OC	1.76%
COC(=O)c1cc(=O)n2c(-c3ccccc3)csc2n1	-5.28%
Cc1nnc(SC2CCN(S(=O)(=O)c3ccc(F)cc3)CC2)s1	2.05%
CCN(CC)S(=O)(=O)c1cccc(C(=O)Nc2ccccc2C(=O)O)c1	-0.0217%
C/C(=N\Cc1ccccc1)c1c(O)c2ccccc2n(Cc2ccccc2)c1=O	1.43%
Cc1oc(-c2ccc(C(=O)NC3CCCc4ccccc43)cc2)nc1CS(=O)(=O)c1ccccc1 (stereo not drawn)	-3.1%
CCc1nc(C(=N)NOC(=O)c2cc3c([nH]c4ccccc43)c(C)n2)no1	11.3%
O=S(=O)(c1cccc2nonc12)N1CCc2ccccc21	-3.18%
CCCCCCC1CC(=O)N(Cc2ccc(C(=O)OC)cc2)C(=O)N1 (stereo not drawn)	-6.94%
COc1ccc(C2OC(=O)CC2C(=O)NC2CCCC(C)C2C)cc1OC (stereo not drawn)	-2.92%
Cc1ccc(C2C(C#N)=C(N)Oc3[nH]nc(-c4ccc5ccccc5c4)c32)o1 (stereo not drawn)	1.57%
CCOc1ccc(NC2=C(Cl)C(=O)N(c3ccccc3C)C2=O)cc1	-1.06%
CC(=O)c1c(-c2ccccc2)nc2n(C)c3ccccc3n12	9.53%
CC(C)CCNC(=O)CNC(=S)N(Cc1ccccc1)Cc1cccnc1	-3.94%
COc1cccc(CNC(=O)CNC(=S)N(CCCN2CCOCC2)Cc2cccs2)c1	2.84%
CC12CC3CC(C)(C1)CC(NC=O)(C3)C2	-8.88%
O=S(=O)(NCc1cccnc1)c1ccc(-c2cc(C(F)(F)F)no2)s1	-5.31%
CCCC(=O)n1nc(-c2ccco2)nc1NCc1cccs1	-3.24%
CCOc1cccc2c1OC1(CCCCC1)N1N=C(c3cccnc3)CC21 (stereo not drawn)	7.95%
CC(C)CCNC(=O)CC(c1cccs1)N1Cc2ccccc2C1=O (stereo not drawn)	-4.21%
CCO/C(O)=C(\C=N\C1CC1)C(=O)c1cc(F)c(F)cc1Cl	0.408%
Cc1ccc(CCN2CC(C(=O)NCc3ccc(C)cc3)CC2=O)cc1 (stereo not drawn)	1.62%
Cc1cc(C)nc(NC(=O)c2ccc3c(c2)OCO3)c1	3.21%

SMILES	% Inhibition @ 10 uM
CN(C)CCCN(CCCN(C)C)Cc1cc([N+](=O)[O-])ccc1Cl	4.28%
COc1cc2c(cc1OC)C(C(=O)NCc1ccc(F)cc1)C(c1cccnc1)N(C)C2=O (stereo not drawn)	0.287%
Cc1ccc(S(=O)(=O)Cc2ccc(C(=O)NCCCN3CCCC3=O)o2)cc1	-3.09%
CC12CN3CC(C)(CN(C1)C3c1ccc(Br)cc1)C2 (stereo not drawn)	4.64%
COc1ccc(/C=N/N=C2\SCC(=O)N2Cc2ccc(F)cc2)cc1OC	0.279%
CN(CC(=O)N1CCc2ccccc2C1)S(=O)(=O)c1ccc(Cl)cc1	-1.81%
CCO/C(O)=C1/C(C)=Nc2ncnn2C1c1cc(OC)c(OC)cc1OC (stereo not drawn)	-1.62%
CCOCCCNC(=O)c1ccc(CS(=O)(=O)c2c(Cl)cccc2Cl)o1	-1.05%
Cc1cc(NS(=O)(=O)c2ccc(NC(=O)c3cccs3)cc2)no1	12.1%
CCc1nonc1NC(=O)c1cccs1	1.67%
CC(=O)Nc1cccc(C(=O)N[C@@H](CC2CCCCC2)C(=O)NCC#N)c1	1.35%
CCCn1c2ccccc2c2cnn(CC(=O)NC3CCCc4ccccc43)c(=O)c21 (stereo not drawn)	-3.76%
CCN(CC)S(=O)(=O)c1ccc(Cl)c(C(=O)NC2CCCCC2)c1	-3.42%
Cn1c(=O)c(C(=O)c2ccc(S(C)(=O)=O)c(Cl)c2Cl)c(O)c2ccccc21	1.43%
CC(=O)NCCNC(=O)CCCCn1c(=O)[nH]c2ccsc2c1=O	-5.67%
Cc1[nH]c2ccccc2c1SCCNC(=O)c1ccncc1	2.64%
CCOC(=O)C1=C(O)/C(=C\c2cccs2)N=C1C	-5.28%
Cc1cccc(CSc2nc3ccncc3n2CC(=O)NCC2CCCO2)c1 (stereo not drawn)	-4.15%
O=C(c1cccc(F)c1)N1CCN(Cc2ccccc2C(F)(F)F)CC1	2.3%
O=[N+]([O-])c1ccc(-c2cn3cc(Cl)ccc3n2)cc1	-4.11%
CCCCOc1ccc(CN2CCC(C(=O)OCC)CC2)cc1	1.62%
O=C(Nc1cc(Cl)c(Cl)cc1Cl)c1cccnc1	0.827%
CN(C)CCN(Cc1ccccc1)Cc1ccsc1	-1.21%
CC1=NC2=C(C(=O)CCC2)C(c2ccccc2)/C1=C(/O)OC(C)C (stereo not drawn)	-7.35%
